Laboratory results from the supplement of paper PMC8728848.
The list shows a part of the results.

Legend:
Test in all cases: glycan array binding signal (z-score within array); higher = stronger binding
Conditions in all cases: glycan notation: IUPAC condensed, linker removed
[1] = biological target: Gal(b1-4)GlcNAc(b1-2)Man(a1-6)[Man(a1-3)]Man(b1-4)GlcNAc(b1-4)GlcNAc
How it was run: (§1)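 Arrays were curated from the Consortium for Functional Glycomics database, 3228 in total, and kept only where the protein sequence was available. Binding is expressed as a within-array Z-score. This score was averaged across arrays of the same protein sequence at different concentrations or buffers and across linkers, and negative values can be read as non-binding.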

[2] = biological target: Gal(b1-4)GlcNAc(b1-2)[Gal(b1-4)GlcNAc(b1-4)]Man(a1-3)[Gal(b1-4)GlcNAc(b1-2)Man(a1-6)]Man(b1-4)GlcNAc(b1-4)GlcNAc
How it was run: as §1

[3] = biological target: Gal(b1-4)GlcNAc(b1-2)[Gal(b1-4)GlcNAc(b1-4)]Man(a1-3)[Gal(b1-4)GlcNAc(b1-2)[Gal(b1-4)GlcNAc(b1-6)]Man(a1-6)]Man(b1-4)GlcNAc(b1-4)GlcNAc
How it was run: as §1

[4] = biological target: Gal(b1-4)GlcNAc(b1-2)[Gal(b1-4)GlcNAc(b1-4)]Man(a1-3)[GlcNAc(b1-4)][Gal(b1-4)GlcNAc(b1-2)Man(a1-6)]Man(b1-4)GlcNAc(b1-4)GlcNAc
How it was run: as §1

[5] = biological target: Gal(b1-4)GlcNAc(b1-2)[Gal(b1-4)GlcNAc(b1-4)]Man(a1-3)[GlcNAc(b1-4)][Gal(b1-4)GlcNAc(b1-2)[Gal(b1-4)GlcNAc(b1-6)]Man(a1-6)]Man(b1-4)GlcNAc(b1-4)GlcNAc
How it was run: as §1

[6] = biological target: Gal(b1-4)GlcNAc(b1-2)[Gal(b1-4)GlcNAc(b1-6)]Man(a1-6)[Gal(b1-4)GlcNAc(b1-2)Man(a1-3)]Man(b1-4)GlcNAc(b1-4)GlcNAc
How it was run: as §1

[7] = biological target: Gal(b1-4)GlcNAc(b1-2)[Gal(b1-4)GlcNAc(b1-6)]Man(a1-6)[Gal(b1-4)GlcNAc(b1-2)Man(a1-3)]Man(b1-4)GlcNAc(b1-4)[Fuc(a1-6)]GlcNAc
How it was run: as §1

[8] = biological target: Gal(b1-4)GlcNAc(b1-2)[Gal(b1-4)GlcNAc(b1-6)]Man(a1-6)[GlcNAc(b1-4)][Gal(b1-4)GlcNAc(b1-2)Man(a1-3)]Man(b1-4)GlcNAc(b1-4)GlcNAc
How it was run: as §1

[9] = biological target: Gal(b1-4)GlcNAc(b1-2)[Gal(b1-4)GlcNAc(b1-6)]Man(a1-6)[GlcNAc(b1-4)][Gal(b1-4)GlcNAc(b1-2)[Gal(b1-4)GlcNAc(b1-4)]Man(a1-3)]Man(b1-4)GlcNAc(b1-4)[Fuc(a1-6)]GlcNAc
How it was run: as §1

[10] = biological target: Gal(b1-4)GlcNAc(b1-3)Gal(b1-3)GalNAc
How it was run: as §1

[11] = biological target: Gal(b1-4)GlcNAc(b1-3)Gal(b1-3)GlcNAc
How it was run: as §1

[12] = biological target: Gal(b1-4)GlcNAc(b1-3)Gal(b1-4)Glc
How it was run: as §1

[13] = biological target: Gal(b1-4)GlcNAc(b1-3)Gal(b1-4)GlcNAc
How it was run: as §1

[14] = biological target: Gal(b1-4)GlcNAc(b1-3)Gal(b1-4)GlcNAc(b1-2)Man(a1-3)[Gal(b1-4)GlcNAc(b1-3)Gal(b1-4)GlcNAc(b1-2)Man(a1-6)]Man(b1-4)GlcNAc(b1-4)GlcNAc
How it was run: as §1

[15] = biological target: Gal(b1-4)GlcNAc(b1-3)Gal(b1-4)GlcNAc(b1-2)Man(a1-3)[Gal(b1-4)GlcNAc(b1-3)Gal(b1-4)GlcNAc(b1-2)Man(a1-6)]Man(b1-4)GlcNAc(b1-4)[Fuc(a1-6)]GlcNAc
How it was run: as §1

[16] = biological target: Gal(b1-4)GlcNAc(b1-3)Gal(b1-4)GlcNAc(b1-2)[Gal(b1-4)GlcNAc(b1-3)Gal(b1-4)GlcNAc(b1-6)]Man(a1-6)[Gal(b1-4)GlcNAc(b1-3)Gal(b1-4)GlcNAc(b1-2)Man(a1-3)]Man(b1-4)GlcNAc(b1-4)GlcNAc
How it was run: as §1

[17] = biological target: Gal(b1-4)GlcNAc(b1-3)Gal(b1-4)GlcNAc(b1-2)[Gal(b1-4)GlcNAc(b1-3)Gal(b1-4)GlcNAc(b1-6)]Man(a1-6)[Gal(b1-4)GlcNAc(b1-3)Gal(b1-4)GlcNAc(b1-2)Man(a1-3)]Man(b1-4)GlcNAc(b1-4)[Fuc(a1-6)]GlcNAc
How it was run: as §1

[18] = biological target: Gal(b1-4)GlcNAc(b1-3)Gal(b1-4)GlcNAc(b1-3)Gal(b1-4)GlcNAc
How it was run: as §1

B1: PNGase F (Flavobacterium meningosepticum) (protein)
chain: GIPAPADNTVNIKTFDKVKNAFGDGLSQSAEGTFTFPADVTAVKTIKMFIKNECPNKTCDEWDRYANVYVKNKTTGEWYEIGRFITPYWVGTEKLPRGLEIDVTDFKSLLSGNTELKIYTETWLAKGREYSVDFDIVYGTPDYKYSAVVPVVQYNKSSIDGVPYGKAHTLALKKNIQLPTNTEKAYLRTTISGWGHAKPYDAGSRGCAEWCFRTHTIAINNSNTFQHQLGALGCSANPINNQSPGNWTPDRAGWCPGMAVPTRIDVLNNSLIGSTFSYEYKFQNWTNNGTNGDAFYAISSFVIAKSNTPISAPVVTNLDPHHHHHH
With B1 the “glycan array binding signal (z-score)” value [1] was -0.294, the “glycan array binding signal (z-score)” value [2] was -0.043 and the “glycan array binding signal (z-score)” value [3] was -0.349. For the same binder, the “glycan array binding signal (z-score)” value [4] was -0.271, the “glycan array binding signal (z-score)” value [5] was -0.285 and the “glycan array binding signal (z-score)” value [6] was -0.257. The “glycan array binding signal (z-score)” value [7] was -0.471, the “glycan array binding signal (z-score)” value [8] was -0.459 and the “glycan array binding signal (z-score)” value [9] was -0.54. For the same binder, the “glycan array binding signal (z-score)” value [10] was -0.329, the “glycan array binding signal (z-score)” value [11] was 0.045 and the “glycan array binding signal (z-score)” value [12] was 0.271. For the same binder, the “glycan array binding signal (z-score)” value [13] was -0.411, the “glycan array binding signal (z-score)” value [14] was 0.135 and the “glycan array binding signal (z-score)” value [15] was -0.253. The “glycan array binding signal (z-score)” value [16] was 1.63, the “glycan array binding signal (z-score)” value [17] was -0.11 and the “glycan array binding signal (z-score)” value [18] was -0.342.
